# Reference: the supplement of paper PMC8728848
# The list shows a part of the results.
# B1: CML1 (Coprinopsis cinerea) (protein)
# chain: MAIFHTGSELFIITRGPGKLTLLTWGGLNNLRSVIGAIPTENTGVTKWAVSFSHNYTRFSFIWEGQGEACYQIGNGLTRSPVGRSWSSSSTIHWGSSTVITEDVTSVVPGAVNRDKVTTAYALPDNL
# Key:
# Assay in all cases: glycan array binding signal (z-score within array); higher = stronger binding
# Settings in all cases: glycan notation: IUPAC condensed, linker removed
# Fuc(a1-2)Gal = target: Fuc(a1-2)Gal
# Procedure, shortened: (§1)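 Glycan array data came from 3228 arrays in the Consortium for Functional Glycomics database, and only arrays with an available protein sequence were kept. Glycan names were put into IUPAC-condensed notation, and columns mapping to the same glycan were averaged. The binding signal is a within-array Z-score, averaged across arrays of one protein sequence run at different concentrations or buffers and across linkers. A negative Z-score can be read as non-binding.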
# Fuc(a1-2)Gal(b1-3)GalNAc = target: Fuc(a1-2)Gal(b1-3)GalNAc
# Procedure, shortened: as §1
# [1] = target: Fuc(a1-2)Gal(b1-3)GalNAc(a1-3)[Fuc(a1-2)]Gal(b1-4)Glc
# Procedure, shortened: as §1
# [2] = target: Fuc(a1-2)Gal(b1-3)GalNAc(a1-3)[Fuc(a1-2)]Gal(b1-4)GlcNAc
# Procedure, shortened: as §1
# [3] = target: Fuc(a1-2)Gal(b1-3)GalNAc(b1-3)Gal
# Procedure, shortened: as §1
# [4] = target: Fuc(a1-2)Gal(b1-3)GalNAc(b1-3)Gal(a1-4)Gal(b1-4)Glc
# Procedure, shortened: as §1
# [5] = target: Fuc(a1-2)Gal(b1-3)GalNAc(b1-4)[Neu5Ac(a2-3)]Gal(b1-4)Glc
# Procedure, shortened: as §1
# Fuc(a1-2)Gal(b1-3)GlcNAc = target: Fuc(a1-2)Gal(b1-3)GlcNAc
# Procedure, shortened: as §1
# [6] = target: Fuc(a1-2)Gal(b1-3)GlcNAc(b1-2)Man(a1-3)[Fuc(a1-2)Gal(b1-3)GlcNAc(b1-2)Man(a1-6)]Man(b1-4)GlcNAc(b1-4)GlcNAc
# Procedure, shortened: as §1
# [7] = target: Fuc(a1-2)Gal(b1-3)GlcNAc(b1-2)Man(a1-3)[Fuc(a1-2)Gal(b1-3)GlcNAc(b1-2)Man(a1-6)]Man(b1-4)GlcNAc(b1-4)[Fuc(a1-6)]GlcNAc
# Procedure, shortened: as §1
# [8] = target: Fuc(a1-2)Gal(b1-3)GlcNAc(b1-3)Gal(b1-4)Glc
# Procedure, shortened: as §1
# [9] = target: Fuc(a1-2)Gal(b1-3)GlcNAc(b1-3)GalNAc
# Procedure, shortened: as §1
# [10] = target: Fuc(a1-2)Gal(b1-3)GlcNAc(b1-3)[Fuc(a1-2)Gal(b1-3)GlcNAc(b1-6)]GalNAc
# Procedure, shortened: as §1
# [11] = target: Fuc(a1-2)Gal(b1-3)GlcNAc(b1-3)[Gal(b1-4)GlcNAc(b1-6)]Gal(b1-4)Glc
# Procedure, shortened: as §1
# [12] = target: Fuc(a1-2)Gal(b1-3)GlcNAc(b1-3)[Neu5Ac(a2-6)Gal(b1-4)GlcNAc(b1-6)]Gal(b1-4)Glc
# Procedure, shortened: as §1
# [13] = target: Fuc(a1-2)Gal(b1-3)GlcNAc6S
# Procedure, shortened: as §1
# [14] = target: Fuc(a1-2)Gal(b1-3)[Fuc(a1-4)]GlcNAc
# Procedure, shortened: as §1
# [15] = target: Fuc(a1-2)Gal(b1-3)[Fuc(a1-4)]GlcNAc(b1-2)Man(a1-3)[Fuc(a1-2)Gal(b1-3)[Fuc(a1-4)]GlcNAc(b1-2)Man(a1-3)]Man(b1-4)GlcNAc(b1-4)GlcNAc
# Procedure, shortened: as §1
# [16] = target: Fuc(a1-2)Gal(b1-3)[Fuc(a1-4)]GlcNAc(b1-2)Man(a1-3)[Fuc(a1-2)Gal(b1-3)[Fuc(a1-4)]GlcNAc(b1-2)Man(a1-6)]Man(b1-4)GlcNAc(b1-4)[Fuc(a1-6)]GlcNAc(b1-4)[Fuc(a1-6)]GlcNAc
# Procedure, shortened: as §1
# [17] = target: Fuc(a1-2)Gal(b1-3)[Fuc(a1-4)]GlcNAc(b1-3)[Fuc(a1-3)[Gal(b1-4)]GlcNAc(b1-6)]Gal(b1-4)Glc
# Procedure, shortened: as §1
# [18] = target: Fuc(a1-2)Gal(b1-3)[Fuc(a1-4)]GlcNAc(b1-3)[Gal(b1-4)GlcNAc(b1-6)]Gal(b1-4)Glc
# Procedure, shortened: as §1
# [19] = target: Fuc(a1-2)Gal(b1-4)Fuc(a1-3)]GlcNAc(b1-2)Man(a1-3)[Fuc(a1-2)Gal(b1-4)[Fuc(a1-3)]GlcNAc(b1-2)Man(a1-6)]Man(b1-4)GlcNAc(b1-4)GlcNAc
# Procedure, shortened: as §1
# Fuc(a1-2)Gal(b1-4)Glc = target: Fuc(a1-2)Gal(b1-4)Glc
# Procedure, shortened: as §1
# Fuc(a1-2)Gal(b1-4)Glc6S = target: Fuc(a1-2)Gal(b1-4)Glc6S
# Procedure, shortened: as §1
# Fuc(a1-2)Gal(b1-4)GlcNAc = target: Fuc(a1-2)Gal(b1-4)GlcNAc
# Procedure, shortened: as §1
# [20] = target: Fuc(a1-2)Gal(b1-4)GlcNAc(b1-2)Man
# Procedure, shortened: as §1
# [21] = target: Fuc(a1-2)Gal(b1-4)GlcNAc(b1-2)Man(a1-3)[Fuc(a1-2)Gal(b1-4)GlcNAc(b1-2)Man(a1-6)]Man(b1-4)GlcNAc(b1-4)GlcNAc
# Procedure, shortened: as §1
# [22] = target: Fuc(a1-2)Gal(b1-4)GlcNAc(b1-2)Man(a1-3)[Fuc(a1-2)Gal(b1-4)GlcNAc(b1-2)Man(a1-6)]Man(b1-4)GlcNAc(b1-4)[Fuc(a1-6)]GlcNAc
# Procedure, shortened: as §1
# [23] = target: Fuc(a1-2)Gal(b1-4)GlcNAc(b1-2)[Fuc(a1-2)Gal(b1-4)GlcNAc(b1-4)]Man(a1-3)[Fuc(a1-2)Gal(b1-4)GlcNAc(b1-2)Man(a1-6)]Man(b1-4)GlcNAc(b1-4)GlcNAc
# Procedure, shortened: as §1
# [24] = target: Fuc(a1-2)Gal(b1-4)GlcNAc(b1-3)Gal(b1-4)GlcNAc
# Procedure, shortened: as §1
binder,measurement,setting,value
B1,glycan array binding signal (z-score),Fuc(a1-2)Gal,0.28
same,glycan array binding signal (z-score),Fuc(a1-2)Gal(b1-3)GalNAc,0.202
same,glycan array binding signal (z-score),[1],-0.316
same,glycan array binding signal (z-score),[2],-0.3
same,glycan array binding signal (z-score),[3],-0.354
same,glycan array binding signal (z-score),[4],1.02
same,glycan array binding signal (z-score),[5],-0.344
same,glycan array binding signal (z-score),Fuc(a1-2)Gal(b1-3)GlcNAc,5.31
same,glycan array binding signal (z-score),[6],2.78
same,glycan array binding signal (z-score),[7],1.34
same,glycan array binding signal (z-score),[8],4.85
same,glycan array binding signal (z-score),[9],3.31
same,glycan array binding signal (z-score),[10],0.55
same,glycan array binding signal (z-score),[11],1.54
same,glycan array binding signal (z-score),[12],0.37
same,glycan array binding signal (z-score),[13],4.12
same,glycan array binding signal (z-score),[14],2.21
same,glycan array binding signal (z-score),[15],-0.123
same,glycan array binding signal (z-score),[16],0.907
same,glycan array binding signal (z-score),[17],0.572
same,glycan array binding signal (z-score),[18],0.304
same,glycan array binding signal (z-score),[19],-0.336
same,glycan array binding signal (z-score),Fuc(a1-2)Gal(b1-4)Glc,-0.039
same,glycan array binding signal (z-score),Fuc(a1-2)Gal(b1-4)Glc6S,1.38
same,glycan array binding signal (z-score),Fuc(a1-2)Gal(b1-4)GlcNAc,-0.152
same,glycan array binding signal (z-score),[20],-0.338
same,glycan array binding signal (z-score),[21],-0.015
same,glycan array binding signal (z-score),[22],-0.339
same,glycan array binding signal (z-score),[23],-0.338
same,glycan array binding signal (z-score),[24],-0.335
